From the supplement of paper PMC3334620
Whole data set: some 33,000 sequences, median “E-score (-0.5 to 0.5)” near -0.04, cut for the highest 2% near 0.36. This is one part of the list.

biological target: T1, Hmlalpha2 (UniProt P0CY09); test: PBM E-score (8-mer binding enrichment) (E-score (-0.5 to 0.5)); higher = stronger / more preferred TF binding; most listed sequences are background and not binding sites; conditions: protein concentration: 200 nM; construct: GST-full length
T1 sequence: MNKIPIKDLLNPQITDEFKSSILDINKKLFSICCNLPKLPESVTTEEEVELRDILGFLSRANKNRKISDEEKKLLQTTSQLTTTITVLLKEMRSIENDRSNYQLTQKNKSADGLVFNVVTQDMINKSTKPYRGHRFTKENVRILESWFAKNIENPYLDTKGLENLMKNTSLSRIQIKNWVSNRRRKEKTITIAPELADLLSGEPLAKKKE
Summary of the method: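 Yeast transcription factors, full-length or as DNA-binding domains, were expressed with a GST tag using PURExpress in vitro transcription/translation. At about 100-200 nM they were applied to universal all-10-mer Agilent arrays, double-stranded by primer extension on fresh or once-stripped slides. Fluorescent anti-GST detected bound protein, and masliner normalised the scans. E-scores for ungapped eight-base words, pooled with reverse complements, came from the Universal PBM Analysis Suite.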

Sequence | PBM E-score
ATCCCGCC | -0.294
ACCACAGG | -0.208
AGATAGAT | -0.0694
GGCTATAA | 0.0869
ATCCTTAG | -0.0601
ATCTCACG | -0.123
ACACGGCG | 0.354
CGGACCAG | -0.139
ACCCGGAT | -0.307
CAAAGCGC | -0.115
ATGAATGG | -0.133
ACGCGTAA | 0.394
CGCAATTC | -0.0219
AGGCTCAA | -0.213
CTATCTAC | 0.234
GCCTGACA | -0.134
TGGAGAAA | -0.169
TACCAACA | 0.252
TCTGTGCA | 0.0841
AATCCCGC | -0.0997
CCAATCTA | -0.0689
AGTAAGTC | -0.0383
CGTATACC | 0.0081
TAGAGGGA | -0.124
CTGTAAAC | 0.31

Sequence | PBM E-score
ACCTCCCT | -0.254
CTTCCCTC | -0.232
ACGCCACA | 0.0371
AAGCAGGT | 0.0138
CGGCATCC | -0.0466
ACCGGAGC | -0.27
CGAATACG | 0.259
CAACCTCG | 0.00622
CGCCAGTA | -0.18
AAGGTCCG | -0.108
GATCGTAC | -0.24
CAGTTTCC | -0.159
GATTCGCC | -0.176
TGGCCAAA | -0.0459
ACCACCTC | -0.164
GGAGGGTA | -0.194
CCCTACAA | 0.138
AGTCGTCA | -0.128
AAAACGCG | 0.286
GGCAAAAA | -0.0268
ACATCTCT | 0.2
AACATTTG | 0.0358
CTAGCTTC | -0.192
ACGAGTAC | 0.316
CCCACATC | -0.136

Sequence | PBM E-score
CAACCGTG | 0.0669
AGAGGAGG | -0.34
CGGCGGGA | -0.341
AAGGAATA | 0.0596
CACGCCCA | 0.105
ATACGCCA | -0.109
AATTTTGG | -0.0175
AAATAACC | 0.00326
TCGTATAA | 0.173
CCAAAGAG | -0.108
GAGGTGAA | -0.0616
CGTCGAAA | 0.177
GCTTCAAC | 0.0375
CCCTCCGG | -0.199
GGCCGAAC | -0.267
GCATGTCA | 0.36
GAGCCGCC | -0.273
CTCGTCAA | -0.00047
CTGTCCCA | -0.136
ACCGAGAC | -0.0321
AGTTATAC | 0.125
ACTAAGAC | 0.0422
GTTCGCGA | 0.113
GAGAGCAA | -0.14
GAATCGTA | 0.00348

Sequence | PBM E-score
AGCTTTAA | 0.106
GCTAAACC | -0.15
AGATTACA | 0.411
CCTCAGCC | -0.247
GGTCAACC | -0.17
CTTCGATA | 0.0352
GAACTTGC | 0.139
GCCGACAC | -0.068
GAGGATTA | 0.0642
ACCCGGAG | -0.0101
GCAGCACA | -0.0784
GGCAGTAA | -0.156
TGACCGAA | -0.0905
ATGGGTAG | -0.086
CATAAGAC | 0.0162
AAACCAAA | 0.167
ACTGTAAA | 0.222
AATGCTGT | 0.105
CACGCTTA | 0.33
AGGCTAAT | -0.094
CATGTACC | 0.287
GCCTGCCA | -0.0217
CGGGGGTA | -0.243
AGTGTGCC | -0.266
CCCGAAAA | -0.0882

Sequence | PBM E-score
AGCCAGCC | -0.196
GTCAACAA | 0.197
AAATAGTA | 0.0991
ACTGTCTG | -0.201
CCAAAACC | -0.0752
CAGGTGAA | 0.0124
CAGATCCA | -0.0975
CCAGCGAA | -0.228
GGTCACCA | -0.357
CCGTACTC | -0.122
CTATCGAG | -0.185
ACCAACAT | 0.338
CTGTGTAC | 0.35
AGTTATCG | 0.0173
CGTGGGGC | -0.349
AAGCTAAT | 0.0678
GCCGCCTA | -0.278
CGTTACGA | 0.182
GGTTCTGA | -0.00782
GCCGTGAC | -0.00226
GCATGCGA | 0.0698
TGATAAAA | 0.142
GATTTCAA | 0.00788
AGCCACCT | -0.2
GGCTACCA | -0.143

Sequence | PBM E-score
ATAGGACG | -0.138
ATGATTAG | 0.121
TAAAAGTA | 0.191
AATCAAGA | -0.0294
ATGGCCCA | -0.0587
CCCCTCCC | -0.386
CAGGGCGA | -0.137
GGGACGAA | 0.0435
ATCTTGAG | -0.0606
CTTCCCGA | -0.107
CGTGACAA | 0.118
GGAGATAC | -0.15
AACGCATT | 0.313
ACTGACCG | -0.299
CATCTTGA | 0.0563
GGACATTA | 0.0946
GGATGGTA | 0.148
ACGTAACC | 0.22
CCCGGTGA | -0.242
CAATGATG | -0.0269
AGTCATCA | -0.209
ATCGACTC | -0.0583
CGTCGCAG | 0.00681
AGCCCAAC | -0.144
TAGAGCGA | -0.0117

Sequence | PBM E-score
TACGCCTA | 0.026
AGAGTTTG | 0.0518
GGGTGTCA | -0.00381
AATAATGC | 0.158
CGGCAACA | 0.111
CCCCGACC | -0.197
AAACCTGC | -0.0545
CGTCACCA | -0.158
TACGAAAA | 0.246
ACTAAAAC | 0.176
AGCTGTCC | -0.273
ACGTTTCG | 0.0744
AAACTAAG | 0.241
ACAGATAT | 0.0588
CATCAAAA | -0.0667
GAATAGGA | -0.169
ATCATCAT | 0.0376
GTTCGCCA | -0.106
GCCCGCAA | -0.131
AAAGGACT | -0.184
ACTCCCGC | -0.166
ACACGCCA | 0.311
ATGTAAAC | 0.483
CGGAGCAA | -0.23
CGGATCTA | -0.0271

Sequence | PBM E-score
CTCTTACA | 0.26
ATTGGCGC | -0.0423
TCATTTCA | 0.0433
CAAATGTC | -0.0372
CTGAGAAC | 0.0249
AAAGGGCC | -0.14
CTGGGAAG | -0.205
CACTCGAC | 0.0639
GGGGTATA | -0.293
GGACAAAA | 0.0371
CGGCATTC | -0.148
ACATGGAC | 0.35
AGCCCACA | -0.139
ATGCACCC | -0.141
CTTCTGAA | -0.214
ATAGGTAG | 0.0181
AAGTTAAA | 0.265
ACATGGCG | 0.324
CCGCGACG | -0.179
TAATCTCA | 0.0124
GCTTGCAA | 0.172
ACGGGCTA | -0.103
ACGATAAG | -0.0954
AATTCTAC | 0.229
AAAAAGAG | -0.0989

Sequence | PBM E-score
ACTTAAGC | 0.044
CGGGACGA | -0.214
GGAATGGA | -0.181
CCAGGGCC | -0.245
AAGTCCAG | -0.154
GCGAATAA | 0.0894
AGACCGAG | 0.0221
AGAGAATG | -0.0972
AATAAAGT | 0.0726
TCTATCAA | -0.0106
CCCTGCTA | -0.193
GCTATGCC | -0.12
ACTACCAG | -0.0734
AGTCATGG | -0.103
CGTGTGGC | -0.017
CTCACACC | -0.254
CATTGGTA | 0.0384
ATGTCCTC | 0.0149
GCTCTTGA | -0.211
CGCCTATC | -0.118
ATCGCCAA | -0.0673
GGGTCGCA | 0.0571
ACCATGCG | -0.0667
ATCCATTA | 0.0206
AGATTTGC | -0.0168

Sequence | PBM E-score
CGCATCCG | -0.189
ATACATCG | 0.299
AACGCATG | 0.248
ACGACTAG | 0.0412
CGCCCGCC | -0.234
CATGGCGC | -0.0216
CACGACGC | 0.161
ACGGGGCG | -0.141
ATACAATC | 0.0682
AAACTCCA | 0.0637
AGTGCAGA | -0.0862
AACAAGTT | 0.178
AGGTCGTA | 0.0742
ACTCCTCA | -0.205
AGTACAGC | 0.00366
AAAACCGC | -0.0373
AAACCTTC | -0.181
AACGAGCT | 0.0829
CCCGACTC | -0.197
ATGAACTG | 0.108
AGTGGAAG | -0.265
CCTCAGCG | -0.255
CCAGTAGC | -0.157
GATTGTTA | 0.283
CACCCTCC | -0.408

Sequence | PBM E-score
CAAAACAC | 0.295
TAACTACA | 0.378
CTGCGCAA | -0.172
CGATCCGA | -0.256
ACGTAGAG | 0.224
CTGTATGA | -0.203
ACCATTCT | -0.248
CACCCTGA | -0.291
GACAGGAA | 0.0161
ACTCCCAC | -0.352
GATGGCCA | 0.01
TGATACAA | 0.231
GTGCGTTA | 0.273
CGACCTGC | -0.156
GTCAACGA | 0.148
CAGTGTGA | 0.0486
CGATGTGC | -0.251
AGTATCCA | -0.0862
ATCAAGAA | 0.0417
AAGATGAA | -0.0846
ACCCCTAT | -0.208
ATGCCTAG | -0.0854
CAACCTCC | -0.301
TAACGCCA | 0.0809
AGCTACTG | -0.0833

Sequence | PBM E-score
TGATTACA | 0.445
ATTTATGG | 0.0527
GGAACAGA | -0.042
CTGCCTAA | -0.0285
CTCAGGTC | -0.17
CACTTGCC | -0.254
CTCAACCC | -0.224
GCCACCAC | -0.228
CATGACCC | -0.0675
CGTTTTCC | 0.063
TCTTTGCA | 0.0746
AAGCGTGC | 0.124
CATGTAGC | 0.344
CCGCAGAA | -0.108
GCATACGA | -0.0763
ATGACCCG | -0.174
CTCTAACC | -0.198
CAGCTCCG | -0.0954
TAAGCCTA | -0.0559
AACTATAA | 0.092
CTTCTAAC | -0.0816
CGCGCACG | 0.0808
CGCTTTCA | 0.0358
GACATGAA | 0.204
AATACTCG | 0.101

Sequence | PBM E-score
CGTCTGTC | -0.0912
CTACAAGA | 0.178
GATGGACC | -0.149
CGACGCAC | 0.137
GTTCTCAA | 0.122
AGCCTATG | -0.00509
ACTACAAG | 0.267
ACTTCGCG | 0.068
GGACTTCA | -0.241
CGTAGCAG | -0.129
ACTTGGCA | -0.155
GAGTGCCC | -0.304
GGTTCACA | 0.101
TAAGTTGA | 0.21
ACAGTCAC | -0.177
CCCAGAGC | -0.355
GGCATACA | 0.00663
CAGGCGTA | 0.125
ACTTCCCT | -0.0977
ACCAATGG | -0.187
TAAGCGCA | 0.0443
CCCCAGAA | -0.264
CACCCACC | -0.163
ATCCGCGA | -0.185
AAGGTATA | 0.0961

Sequence | PBM E-score
TATGGCCA | -0.0769
CTTAACTC | 0.104
AGTCGACA | 0.184
AAGGAGTA | -0.142
CCTCGAAA | 0.137
CGAACTTA | -0.00348
CGACGTGC | -0.106
ATCGTCTA | 0.00893
AATTGTCG | -0.0873
CCAAGCCG | -0.171
ACCAGCAC | -0.0704
GGCGATGA | -0.168
AGAGCTCT | -0.23
AGCCCGAG | -0.212
CGGCCAGC | -0.166
CTCATCGC | -0.0512
CGTCGATC | 0.144
ACCATAGA | -0.224
GTGCATGA | 0.0341
